# From PubChem BioAssay AID588795 (National Center for Advancing Translational Sciences (NCATS), 2011)
# About 1,400 (0.36%) of roughly 390,000 compounds were called active. Inconclusive results, whose numbers are uncertain, are shown with a selection of clear calls. Calls come from the whole dose curve; as a rule, active = well fitted inhibition curve with a large enough effect; inconclusive = small, poorly fitted or top-dose-only effect; inactive = no such curve, though single readings can be large or run the other way. Potencies beside an inconclusive call are fits to weak or partial responses and may not hold up.
# Target: Flap endonuclease 1 (Homo sapiens) (UniProt P39748)
# Experiment: qHTS Assay for the Inhibitors of Human Flap endonuclease 1 (FEN1). Note: nearly all actives have a fitted effect of over 65% in size.
# Settings: Recombinant FEN1 flap cleavage, fluorescence, 15 min; series mostly up to 114 µM
# Source text: The major human flap endonuclease FEN1 is an efficient structure-specific enzyme that recognizes and cleaves a 5'-unannealed DNA flap. It belongs to the RAD2 family nucleases, which are involved in DNA metabolism and are highly conserved in prokaryotes and eukaryotes. FEN1 is a key enzyme in DNA replication, repair and maintenance of genomic stability. 5'-flap removal by FEN1 is critical for Okazaki fragment processing during lagging strand DNA synthesis, long-patch base excision repair (LP BER), and regulating or facilitating recombination events. […] Deletion of the yeast FEN1 gene, i.e. rad27, results in an increased frequency of short DNA (3-32 bp) repeats, micro- and mini-satellite formation, trinucleotide repeat expansion, spontaneous recombination events, and a severe growth defect in association with cell cycle arrest in late S/G2 phase. […] Cells from fen1-/- blastocysts show increased apoptotic cell death after ionizing radiation treatment, and chicken cells lacking the fen1 gene are hypersensitive to DNA alkylating agents, e.g. methylmethane sulfonate (MMS) and N-methyl-N'-nitro-N-nitrosoguanidine (MNNG), as well as hydrogen peroxide.
# NIH Chemical Genomics Center [NCGC]
# NIH Molecular Libraries Probe Centers Network [MLPCN]
# Assay Submitter (PI): David Wilson, National Institute of Aging
# Three uL of reagents (buffer in column 3 and 4 as negative control and 10 nM FEN1 in columns 1, 2, and 5-48) were dispensed into 1,536-well black solid-bottomed plate. Compounds (23 nL) were transferred via Kalypsys pin tool equipped with 1536-pin array (10 nL slotted pins, V&P Scientific, San Diego, CA). The plates were then incubated for 15 min at room temperature, and 1 uL substrate (50 nM final concentration) were added to start the reaction read twice at 0 min read and 15 min on ViewLux reader. Throughout the screen, reagent bottle and all liquid lines were chilled and made light-tight to minimize reagent degradation. All screening operations were performed on a fully integrated robotic system (Kalypsys, San Diego, CA) containing one RX-130 and two RX-90 anthropomorphic robotic arms (Staubli, Duncan, SC). Library plates were screened starting from the lowest and proceeding to the highest concentration, and a "double-dipping" step of the highest concentration was required to access higher concentrations of compounds. Vehicle-only plates, with DMSO being pin-transferred to the entire column 5-48 compound area, were inserted uniformly at the beginning and the end of each library in order to monitor for and record any shifts in the background, which can be affected by reagent dispensers or loss in enzyme activity overtime. Screening data was corrected, normalized, and concentration-effect relationships were derived by using publicly-available curve fitting algorithms developed in-house (http://ncgc.nih.gov/pub/openhts). A four parameter Hill equation was fitted to the concentration-response data by minimizing the residual error between the modeled and observed responses.
# Potency is the fitted concentration of half-maximal effect; tags give direction and shape of the fitted curve.
# UniProt P39748, sequence (P39748 whole entry, looked up): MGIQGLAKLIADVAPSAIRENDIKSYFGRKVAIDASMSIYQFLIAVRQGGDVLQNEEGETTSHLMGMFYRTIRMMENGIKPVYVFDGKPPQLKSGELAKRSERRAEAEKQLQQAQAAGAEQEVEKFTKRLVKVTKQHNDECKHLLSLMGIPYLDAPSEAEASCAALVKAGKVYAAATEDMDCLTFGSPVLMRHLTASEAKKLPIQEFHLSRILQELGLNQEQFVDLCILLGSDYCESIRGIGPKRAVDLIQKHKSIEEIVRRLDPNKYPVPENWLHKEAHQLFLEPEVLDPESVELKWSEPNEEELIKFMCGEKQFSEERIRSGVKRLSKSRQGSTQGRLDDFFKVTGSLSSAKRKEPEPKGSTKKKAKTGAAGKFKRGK
row,Compound,Potency
1,COc1ccc(NC(=O)c2ccco2)cc1NC(=O)c1cccc(OC(C)C)c1,"inconclusive: 89.1 µM [inhibitor, partial curve, poor fit]"
2,O=C1/C(=C\c2ccccn2)SC(=S)N1c1ccc(S(=O)(=O)Nc2nccs2)cc1,"inconclusive: 79.4 µM [inhibitor, partial curve, poor fit]"
3,Nc1ccc(C(=O)Nc2ccc3c(O)cc(S(=O)(=O)O)cc3c2)cc1,"inconclusive: 56.2 µM [inhibitor, partial curve, poor fit]"
4,O=C(O)c1cccc(-n2cccc2/C=N/O)c1,"inconclusive: 89.1 µM [inhibitor, partial curve, poor fit]"
5,N#C/C(=C\c1ccc(N2CCCCC2)o1)C(=O)Nc1cccc(Br)c1,"inconclusive: 56.2 µM [inhibitor, partial curve, poor fit]"
6,CC(=O)NC1=NC(=O)/C(=C/c2cn(C(C)=O)nc2-c2ccccc2)S1,"inconclusive: 44.7 µM [inhibitor, partial curve, poor fit]"
7,COc1cccc(COc2cc3ccccc3nc2C)c1,"inconclusive: 89.1 µM [inhibitor, partial curve, poor fit]"
8,CC1(C)CC(=O)C2=C(C1)c1c(ccc3ccccc13)NC2c1cc([N+](=O)[O-])cc([N+](=O)[O-])c1O (centres undefined),"inconclusive: 56.2 µM [inhibitor, partial curve, poor fit]"
9,CN(C)/[N+]([O-])=N/Oc1cc(O/[N+]([O-])=N/N2CCCC2CO)c([N+](=O)[O-])cc1[N+](=O)[O-] (centres undefined),"inconclusive: 12.6 µM [inhibitor, partial curve, poor fit]"
10,CC[C@H](C)/C=C/C1=CC2=C(Cl)C(=O)[C@@]3(C)OC(=O)C(C(=O)[C@H](C)[C@@H](C)O)=C3C2=CO1,"inconclusive: 20 µM [inhibitor, full curve, poor fit]"
11,O=C(OCC(=O)c1c[nH]c2ccccc12)c1cccc([N+](=O)[O-])c1,"inconclusive: 39.8 µM [inhibitor, partial curve, poor fit]"
12,Cc1ccc(O)c(Nc2c3ccccc3nc3ccccc23)c1,inactive
13,CC(CNC(=O)c1csc2c1CCCCC2)c1ccccc1 (centres undefined),inactive
14,COc1ccc(/C=C2/C(=O)N(c3ccccc3)N=C2C)cc1Br,"inconclusive: 89.1 µM [inhibitor, single point]"
15,O=C1Nc2cc(Cl)cnc2N2CCCC12 (centres undefined),"inconclusive: 25.1 µM [inhibitor, single point]"
16,COc1ccc(CCN2C(=O)N(c3ccc(C)cc3)C(=O)C2CC(=O)Nc2ccc(OC)cc2)cc1 (centres undefined),inactive
17,COc1ccc(-c2nc3ccc(C)cn3c2NCc2ccccc2)cc1SC1CCCCC1,inactive
18,O=C(O)c1cc(O)c2c(c1)C(=O)c1cccc(O)c1C2=O,"inconclusive: 50.1 µM [inhibitor, partial curve, poor fit]"
19,CCCNC(=O)c1nnsc1S(=O)c1ccc(Cl)cc1 (centres undefined),"inconclusive: 70.8 µM [inhibitor, partial curve, poor fit]"
20,N#C/C(=C\c1cccc(Cl)c1)C(=O)c1ccccc1,"inconclusive: 39.8 µM [inhibitor, single point]"

row,Compound,Potency
1,COc1ccc(OCC(O)CN2CCC(CN3C(=O)c4cccc5cccc(c45)C3=O)CC2)cc1 (centres undefined),"inconclusive: 28.2 µM [inhibitor, partial curve, poor fit]"
2,Cc1cccc(-n2c(N)c(C(=O)NCCN3CCOCC3)c3nc4ccccc4nc32)c1,"inconclusive: 79.4 µM [inhibitor, partial curve, poor fit]"
3,CCCC(=O)Nc1cc(-c2nc3cccnc3s2)ccc1C,"inconclusive: 35.5 µM [inhibitor, partial curve, poor fit]"
4,CN(C)c1cc(Cl)c2nonc2c1N,"inconclusive: 31.6 µM [inhibitor, partial curve, poor fit]"
5,Cc1ccc(C2=Nc3ccccc3N(C(=O)c3ccccc3)C(C)C2)cc1 (centres undefined),inactive
6,C1=Cc2ccccc2/C1=C\c1ccc2c(c1)OCO2,inactive
7,Cc1cc(C)c2c(=O)n(CC(=O)NCCCN3CCOCC3)sc2n1,"inconclusive: 89.1 µM [inhibitor, single point]"
8,O=C(CSc1nc(NS(=O)(=O)c2ccccc2)cc(=O)[nH]1)Nc1ccccc1Cl,inactive
9,CCCCOC(=O)c1ccc(NC(=S)N2CCN(c3ncc4c(=O)c(C(=O)O)cn(CC)c4n3)CC2)cc1,"inconclusive: 79.4 µM [inhibitor, partial curve]"
10,Cc1coc2c(C)c3oc(=O)c(CCC(=O)N[C@@H](C)C(=O)N[C@@H](Cc4ccccc4)C(=O)O)c(C)c3cc12,inactive
11,CN(C)/[N+]([O-])=N/Oc1cc(F)c([N+](=O)[O-])cc1[N+](=O)[O-],"inconclusive: 22.4 µM [inhibitor, partial curve]"
12,COc1nc(Nc2nc3ccccc3c(=O)[nH]2)nc2ccc(C)cc12,"inconclusive: 56.2 µM [inhibitor, partial curve, poor fit]"
13,Cc1ccc(C)c(OC(C)C(=O)Nc2ccc(S(=O)(=O)Nc3nccs3)cc2)c1 (centres undefined),"inconclusive: 100 µM [inhibitor, partial curve, poor fit]"
14,O=C1CSC(=S)N1/N=C/c1ccc(O)c(O)c1O,active: 2.82 µM
15,C=CCc1c(C)nc(-c2ccccc2)nc1Nc1ccccc1O,"inconclusive: 70.8 µM [inhibitor, partial curve, poor fit]"
16,COC(=O)c1c(/N=C/N(C)C)sc2c1CCN(c1ncc(C(F)(F)F)cc1Cl)C2,"inconclusive: 79.4 µM [inhibitor, partial curve, poor fit]"
17,Cc1cccc(NC(=O)COc2ccccc2C(=O)NC(C)c2ccccc2)c1 (centres undefined),"inconclusive: 79.4 µM [inhibitor, partial curve, poor fit]"
18,COC(=O)CCC(=O)N1CCCC(CNS(=O)(=O)c2ccc(OC)cc2)C1 (centres undefined),inactive
19,CCOC(=O)/C(C#N)=C/c1ccc(-c2ccccc2)o1,"inconclusive: 70.8 µM [inhibitor, single point]"
